These are yes or no findings as the source states them, for the method shown. For some assays here: In cells and extracts the contact can be indirect. Some binding calls cover weakened binding; strength is not graded here. Sequences can lack the tags named with a protein.

For experiment [1], the target named is T1, SnRK2.1 fused to the GAL4 DNA-binding domain (Arabidopsis) (UniProt P43292).
T1 sequence: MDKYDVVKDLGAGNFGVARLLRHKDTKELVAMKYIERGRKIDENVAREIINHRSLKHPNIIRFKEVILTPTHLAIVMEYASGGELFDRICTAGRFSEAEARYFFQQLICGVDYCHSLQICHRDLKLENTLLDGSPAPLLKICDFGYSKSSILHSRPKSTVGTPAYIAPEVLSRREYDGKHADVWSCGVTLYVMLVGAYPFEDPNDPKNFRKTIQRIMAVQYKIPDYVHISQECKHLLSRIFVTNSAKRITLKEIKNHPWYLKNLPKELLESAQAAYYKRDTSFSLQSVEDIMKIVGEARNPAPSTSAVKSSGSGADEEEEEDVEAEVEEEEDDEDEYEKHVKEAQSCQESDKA
The experiment in a line: two-hybrid; SnRK2s in pGBKT7 (GAL4 DNA-binding domain), ABI1 in pGADT7 (GAL4-activating domain); Y2H Gold strain; growth of culture dilutions on SD -L-W-H, 3 days at 28°C.

In experiment [2] the target is T2, SnRK2.9 fused to the GAL4 DNA-binding domain (Arabidopsis) (UniProt O64812).
T2 sequence: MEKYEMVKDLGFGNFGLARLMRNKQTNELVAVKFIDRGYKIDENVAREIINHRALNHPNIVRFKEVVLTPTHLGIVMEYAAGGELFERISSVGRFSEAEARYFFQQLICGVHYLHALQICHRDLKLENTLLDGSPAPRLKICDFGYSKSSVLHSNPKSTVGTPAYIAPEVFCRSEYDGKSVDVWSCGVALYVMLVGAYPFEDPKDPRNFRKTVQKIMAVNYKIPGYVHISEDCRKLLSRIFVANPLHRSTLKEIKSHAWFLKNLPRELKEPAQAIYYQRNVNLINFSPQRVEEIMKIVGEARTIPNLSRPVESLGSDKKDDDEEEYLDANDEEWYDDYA
Described as above.

The target of experiment [3] is T3, SnRK2.5 fused to the GAL4 DNA-binding domain (Arabidopsis) (UniProt Q9FFP9).
T3 sequence: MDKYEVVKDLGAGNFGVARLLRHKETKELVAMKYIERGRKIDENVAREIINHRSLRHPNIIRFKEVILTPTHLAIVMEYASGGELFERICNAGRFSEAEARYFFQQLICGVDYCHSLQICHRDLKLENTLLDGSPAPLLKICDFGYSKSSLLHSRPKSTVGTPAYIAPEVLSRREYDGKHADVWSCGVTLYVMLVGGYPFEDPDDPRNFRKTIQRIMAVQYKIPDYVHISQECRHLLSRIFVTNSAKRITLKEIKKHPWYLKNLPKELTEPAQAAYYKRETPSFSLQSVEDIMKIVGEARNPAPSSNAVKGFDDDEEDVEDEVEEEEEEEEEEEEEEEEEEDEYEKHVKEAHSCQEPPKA
The description is as above.

Experiment [4] has as its target T4, SnRK2.4 fused to the GAL4 DNA-binding domain (Arabidopsis) (UniProt P43291).
T4 sequence: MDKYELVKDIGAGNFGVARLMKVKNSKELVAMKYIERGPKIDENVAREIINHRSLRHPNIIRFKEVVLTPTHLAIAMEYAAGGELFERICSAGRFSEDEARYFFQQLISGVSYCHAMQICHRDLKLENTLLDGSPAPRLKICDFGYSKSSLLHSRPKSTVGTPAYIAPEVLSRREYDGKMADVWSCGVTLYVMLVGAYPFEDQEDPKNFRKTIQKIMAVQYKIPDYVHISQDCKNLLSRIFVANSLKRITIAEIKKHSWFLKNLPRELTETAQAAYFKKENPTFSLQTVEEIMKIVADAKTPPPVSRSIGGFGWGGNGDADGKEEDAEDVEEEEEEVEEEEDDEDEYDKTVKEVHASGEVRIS
Described as above.

The target of experiment [5] is T5, SnRK2.4 nLUC fusion (Arabidopsis) (UniProt P43291).
T5 sequence: T4 sequence
Briefly: split reporter; split-LUC complementation; SnRK2s in pCAMBIA-35S-nLUC, PP2Cs in pCAMBIA-35S-cLUC; transient expression in N. benthamiana leaves, LUC activity read 2 days after infiltration with D-luciferin.

Experiment [6] addresses T6, SnRK2.1 nLUC fusion (Arabidopsis) (UniProt P43292).
T6 sequence: T1 sequence
The experiment is described as above.

For experiment [7], the target named is T7, SnRK2.4-nYFP (Arabidopsis) (UniProt P43291).
T7 sequence: T4 sequence
Briefly: split reporter; BiFC (split-YFP); SnRK2s-nYFP with ABI1-cYFP or At4g33920-cYFP, agro-infiltrated into N. benthamiana leaves, 48 hours in the dark, confocal microscopy.

The target of experiment [8] is T8, SnRK2.1-nYFP (Arabidopsis) (UniProt P43292).
T8 sequence: T1 sequence
The description is as above.

In experiment [9] the target is T9, SnRK2.10 fused to the GAL4 DNA-binding domain (Arabidopsis), Q9C958.
T9 chain: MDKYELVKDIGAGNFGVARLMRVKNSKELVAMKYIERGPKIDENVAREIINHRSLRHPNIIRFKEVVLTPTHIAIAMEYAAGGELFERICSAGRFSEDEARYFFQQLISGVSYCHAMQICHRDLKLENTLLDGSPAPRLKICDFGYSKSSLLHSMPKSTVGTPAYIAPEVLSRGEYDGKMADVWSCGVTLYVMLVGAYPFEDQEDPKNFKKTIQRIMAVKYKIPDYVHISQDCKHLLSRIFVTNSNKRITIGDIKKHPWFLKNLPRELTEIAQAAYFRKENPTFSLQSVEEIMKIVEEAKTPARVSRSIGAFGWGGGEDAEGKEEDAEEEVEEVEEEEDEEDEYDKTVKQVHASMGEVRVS
The experiment in a line: two-hybrid; SnRK2s in pGBKT7 (GAL4 DNA-binding domain), ABI1 in pGADT7 (GAL4-activating domain); Y2H Gold strain; growth of culture dilutions on SD -L-W-H, 3 days at 28°C. Particulars: remark: other sources report otherwise.

As for “ABA-insensitive 1 (ABI1) fused to the GAL4-activating domain (from UniProt P49597 1-434) (enzyme)”, the binding result in [1] is “binds”; in experiment [2] it was “no binding”; in experiment [3], “binds”; in experiment [4], “binds”.
As to “ABI1 cLUC fusion (from UniProt P49597 1-434) (enzyme)”, the binding entry in experiment [5] and in experiment [6] was “binds” each time.
Turning to “ABI1-cYFP (from UniProt P49597 1-434) (enzyme)”, the binding result in experiment [7] and in experiment [8] was “binds” in each case.

B1: At4g33920-cYFP (enzyme, UniProt O81760 1-380)
chain: MLRALARPLERCLGSRASGDGLLWQSELRPHAGGDYSIAVVQANSRLEDQSQVFTSSSATYVGVYDGHGGPEASRFVNRHLFPYMHKFAREHGGLSVDVIKKAFKETEEEFCGMVKRSLPMKPQMATVGSCCLVGAISNDTLYVANLGDSRAVLGSVVSGVDSNKGAVAERLSTDHNVAVEEVRKEVKALNPDDSQIVLYTRGVWRIKGIIQVSRSIGDVYLKKPEYYRDPIFQRHGNPIPLRRPAMTAEPSIIVRKLKPQDLFLIFASDGLWEHLSDETAVEIVLKHPRTGIARRLVRAALEEAAKKREMRYGDIKKIAKGIRRHFHDDISVIVVYLDQNKTSSSNSKLVKQGGITAPPDIYSLHSDEAEQRRLLNVLY
B1: the binding entry in experiment [7] and in experiment [8] was “no binding” throughout.

B2: ABA-insensitive 1 (ABI1) fused to the GAL4-activating domain, P49597 1-434 (enzyme)
chain: MEEVSPAIAGPFRPFSETQMDFTGIRLGKGYCNNQYSNQDSENGDLMVSLPETSSCSVSGSHGSESRKVLISRINSPNLNMKESAAADIVVVDISAGDEINGSDITSEKKMISRTESRSLFEFKSVPLYGFTSICGRRPEMEDAVSTIPRFLQSSSGSMLDGRFDPQSAAHFFGVYDGHGGSQVANYCRERMHLALAEEIAKEKPMLCDGDTWLEKWKKALFNSFLRVDSEIESVAPETVGSTSVVAVVFPSHIFVANCGDSRAVLCRGKTALPLSVDHKPDREDEAARIEAAGGKVIQWNGARVFGVLAMSRSIGDRYLKPSIIPDPEVTAVKRVKEDDCLILASDGVWDVMTDEEACEMARKRILLWHKKNAVAGDASLLADERRKEGKDPAAMSAAEYLSKLAIQRGSKDNISVVVVDLKPRRKLKSKPLN
As to B2, the binding result in experiment [9] is reported as “binds”.

The values above are taken from PMC11777248.
